The results in this text go back to publication PMC13083723 (Patterns, 2026).

About 190 (3.5%) of roughly 5,400 compounds showed an effect of 50% or more. Some of the results follow.

The subject of this test is Vero-E6. Description: primary screen, phospholipidosis by LipidTOX staining; higher = more effect of the substance. To be noted: 10 µM. The protocol: To measure drug-induced PLD in Vero-E6 cells, we used the HCS LipidTOX Red Phospholipidosis Detection Reagent (Invitrogen, #H34351), which is non-toxic to cell growth and remains well retained after aldehyde fixation. In this setup, compounds (at 10 μM concentration) and controls (amiodarone: 10 μM concentration; DMSO: 0.1 v/v %) were added to clear-bottom, 384-well plates (PhenoPlate 384-well, black, optically clear flat bottom, tissue-culture treated, Revvity #6057302) using the Echo Liquid Handler (Labcyte).
On to `COc1cc(C(=O)NCC2(N(C)C)CCCC2)cc(OC)c1OCc1ccccc1`, for which the result_ITMP is on record as 25.4%.

As to `COc1ccc(F)c(F)c1C(=O)c1cnc(NC2CCN(S(C)(=O)=O)CC2)nc1N`, the result_ITMP is 16.3%.

Turning to `CC(SC(=O)c1cccs1)C(=O)NCC(=O)O` (centres unmarked), the result_ITMP is reported as -5.05%.

In the case of `CC(=O)O[C@]1(C(C)=O)CCC2C3C[C@H](C)C4=CC(=O)CC[C@]4(C)C3CC[C@@]21C` (some centres unmarked), the result_ITMP is given as -3.12%.

In the case of `O=[N+]([O-])c1cc([As](=O)(O)O)ccc1O`, the result_ITMP is on record as -5.26%.

Consider `Cc1ccc([N+](=O)[O-])cc1S(=O)(=O)N(C)C`, for which the result_ITMP was -2.23%.

On to `O=S(=O)(O)c1cc(O)ccc1O`, for which the result_ITMP is -4.32%.

On to `Cc1c(O)c(=O)ccn1C`, for which the result_ITMP was -10.5%.

As to `CN(C)CC/C=C1\c2ccccc2Sc2ccc(Cl)cc21`, the result_ITMP is given as 51.1%.

On to `COc1ccc(OC)c(C2C(C#N)=C(N)Oc3[nH]nc(-c4ccc5ccccc5c4)c32)c1` (centres unmarked), for which the result_ITMP is -0.98%.

As to `CCN(CC)CC1CCN(c2ncc3ncnc(Nc4ccc(F)c(Cl)c4)c3n2)CC1`, the result_ITMP is given as 97%.

For `COc1cc2nc(N3CCN(C(=O)C(C)OC)CC3)nc(N)c2cc1OC` (centres unmarked), the result_ITMP was found to be 3.88%.

With `O=C1C[C@@H](c2ccc(O)cc2)Oc2cc(O)cc(O)c21`, the result_ITMP was -2.95%.

In the case of `CCC(=O)O[C@]1(C(=O)CCl)[C@@H](C)C[C@H]2[C@@H]3CCC4=CC(=O)C=C[C@]4(C)[C@@]3(F)[C@@H](O)C[C@@]21C`, the result_ITMP is listed as -4.27%.

As for `O=C(O)c1ccc2[nH]cc(CCCCN3CC=C(c4ccccc4)CC3)c2c1`, the result_ITMP is listed as -12.5%.

Regarding `CN(Cc1ccccc1)C(=O)[C@H](Cc1ccc2ccccc2c1)NC(=O)[C@@H]1CCCN1C(=O)Nc1ccccc1[N+](=O)[O-]`, the result_ITMP came out at 4.15%.

For the compound `CC(=O)Nc1nc(C)c(-c2ccc(Cl)c(S(=O)(=O)NCCO)c2)s1`, the result_ITMP is recorded as -5.63%.

`Cc1cc(O)c(-c2ccc([C@@H](C)CN)cc2)c2c1[nH]c(=O)c1sccc12`: the result_ITMP was -2.2%.

For the compound `CN[C@H](CC(C)C)C(=O)NC1C(=O)N[C@@H](CC(N)=O)C(=O)N[C@H]2C(=O)NC3C(=O)N[C@H](C(=O)N[C@@H](C(=O)O)c4cc(O)cc(O)c4-c4cc3ccc4O)[C@H](O)c3ccc(c(Cl)c3)Oc3cc2cc(c3O[C@@H]2OC(CO)[C@@H](O)[C@H](O)[C@H]2O[C@H]2C[C@](C)(N)[C@H](O)[C@H](C)O2)Oc2ccc(cc2Cl)[C@H]1O` (some centres unmarked), the result_ITMP was -7.09%.

On to `COC(=O)C1=C(C)NC(C)=C(C(=O)O[C@@H]2CCCN(Cc3ccccc3)C2)[C@@H]1c1cccc([N+](=O)[O-])c1` (racemic), for which the result_ITMP is 8.13%.

Consider `OCC[N+]12CN3CN(CN(C3)C1)C2`, for which the result_ITMP is -1.77%.

As to `CCCCN1CCCC1CNC(=O)c1cc(C#N)c2ccccc2c1OC` (centres unmarked), the result_ITMP came to 6.45%.

Consider `Cc1c(Cl)cccc1S(=O)(=O)Nc1nc(CC(=O)N2CCN(C)CC2)cs1`, for which the result_ITMP is on record as -1.74%.

With `CN1[C@@H]2CC[C@H]1C[C@@H](OC(=O)N1Cc3ccccc3NC1=O)C2`, the result_ITMP was -1.56%.

With `Cc1nc(NS(=O)(=O)c2ccc(N)cc2)oc1C`, the result_ITMP is given as -0.96%.

In the case of `CCOC(=O)Nc1ccc2c(c1)N(C(=O)CN(CC)CC)c1ccccc1CC2`, the result_ITMP amounted to 2.01%.

For the compound `C[N+]1(C)[C@@H]2C[C@@H](OC(=O)C(O)(c3cccs3)c3cccs3)C[C@H]1[C@@H]1O[C@@H]12`, the result_ITMP is listed as -2.59%.

`OC[C@H]1O[C@@H](Oc2cc(O)cc(/C=C/c3ccc(O)cc3)c2)[C@H](O)[C@@H](O)[C@@H]1O`: the result_ITMP is recorded as -1.94%.

`COc1ccc2nc3c(c(N)c2c1)CCCC3`: the result_ITMP came to 27.8%.

With `COc1ccc(C2CNC(=O)C2)cc1OC1CCCC1` (centres unmarked), the result_ITMP is reported as -3.94%.

Take `O=c1c(O)c(-c2ccc(O)cc2O)oc2cc(O)cc(O)c12`: the result_ITMP was -3.73%.

In the case of `CCCNCC(O)COc1ccccc1C(=O)CCc1ccccc1` (centres unmarked), the result_ITMP worked out at 86.6%.

Regarding `O=C(O)/C=C\c1c[nH]cn1`, the result_ITMP is on record as -4.42%.

Consider `CCCN1C[C@@H](NS(=O)(=O)N(CC)CC)C[C@@H]2Cc3c(O)cccc3C[C@H]21`, for which the result_ITMP is listed as 0.96%.

As to `O=C1c2ccc(Nc3ccc(F)cc3F)cc2CCc2ccc(OC[C@H](O)CO)cc21`, the result_ITMP is given as -2.7%.

For the compound `O=C(Nc1cccc2c(=O)cc(-c3nn[nH]n3)oc12)c1ccc(OCCCCc2ccccc2)cc1`, the result_ITMP is recorded as 0.93%.

In the case of `COc1ccccc1OCC(O)CN1CCN(CC(=O)Nc2c(C)cccc2C)CC1` (centres unmarked), the result_ITMP is -3.35%.

`O=[N+]([O-])c1cccc2cn[nH]c12`: the result_ITMP is given as -13%.

Turning to `COc1cc([C@@H]2c3cc4c(cc3[C@@H](O[C@@H]3O[C@@H]5CO[C@@H](C)O[C@H]5[C@H](O)[C@H]3O)[C@H]3COC(=O)[C@H]23)OCO4)cc(OC)c1O`, the result_ITMP is listed as -0.38%.

On to `CC[C@@H](C)Nc1cc(C(=O)NC2CC3CCC(C2)N3c2ccc(C(=O)C3CC3)cn2)c(C)cc1C(N)=O` (some centres unmarked), for which the result_ITMP is listed as -8.13%.

As to `C[C@H]1C[C@@H]2[C@H]([C@@H](O)C[C@@]3(C)[C@H]2CC[C@]3(O)C(=O)CO)[C@@]2(C)C=CC(=O)C=C12`, the result_ITMP was -4.05%.

With `O=C(O)/C=C/c1ccc(O)cc1`, the result_ITMP amounted to 0.1%.

Turning to `CC(C)[C@@H](C)/C=C/[C@@H](C)[C@H]1CC[C@H]2C3=CC=C4C[C@@H](O)CC[C@]4(C)[C@H]3CC[C@]12C`, the result_ITMP was -5.48%.

Regarding `CS(=O)(=O)OCOS(C)(=O)=O`, the result_ITMP is listed as -5.81%.

In the case of `CNC(=O)ON(C(C)=O)C(=O)NC`, the result_ITMP is given as -4.07%.

As for `COc1ccc(/C=C/CCCCOc2ccc(C(=O)c3cccc(C(=O)O)c3)cc2CCC(=O)O)cc1`, the result_ITMP is recorded as -4.54%.

Turning to `O=C(O)c1cc(C(=O)O)c(C(=O)N(Cc2cccc(Oc3ccccc3)c2)[C@H]2CCCc3ccccc32)cc1C(=O)O`, the result_ITMP is recorded as 0.15%.

As to `CCn1cc(-c2cccc(C(F)(F)F)c2)c2sc(C(=N)NC3CCS(=O)(=O)CC3)cc2c1=O`, the result_ITMP is given as -2.06%.

Take `CCCCCCOC(=O)CCC(=O)CN`: the result_ITMP is reported as -1.79%.

As for `O=C(Oc1ccc(Br)cc1)N1CCN2CCC1CC2`, the result_ITMP is 0.72%.

Turning to `CC[C@@]1(O)C(=O)OCc2c1cc1n(c2=O)Cc2cc3c(N)cccc3nc2-1`, the result_ITMP was 41.6%.

For `O=C(NCCN1CCC2(CC1)C(=O)NCN2c1cccc(F)c1)c1ccc(F)c(F)c1`, the result_ITMP was 60.1%.

As for `CC(C)NCC(O)c1ccc2ccccc2c1` (centres unmarked), the result_ITMP was found to be 20.2%.
